This passage reports switch fluorescence ratio results from the supplement of paper PMC10126150.

Sequences with one replicate were seen in a single cluster, so their values are uncertain.

This data set deals with ATP. The data set can be described thus: switch fluorescence ratio, 500 uM ATP over buffer (Cy3 cluster intensity, sum of 5 cycles each) (fold (ratio)); higher = stronger signal-on switching upon ATP binding; sequences stand for … in TCGTCGGCAGCGTCAGATGTGTATAAGAGACAGTTTTTTTTTTTTTTTTTTTTTTTTT…TC. The conditions noted are these: aptamer strand: ATP DNA aptamer (quencher-CACCTGGGGGAGTATTGCGGAGGAAGG + anchor), 100 nM annealed; ATP concentration: 500 uM; one replicate. Put shortly:
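Clusters carrying Cy3-labelled switching strands on a modified Illumina MiSeq flow-cell were annealed to 100 nM quencher-labelled ATP aptamer and imaged in selection buffer. They were imaged again after 15 min with 500 uM ATP at 22 °C, over five buffer/ATP cycles with NaOH stripping and re-annealing in between. For each cluster, the fluorescence ratio is the summed Cy3 intensity of the target cycles divided by that of the buffer cycles, averaged per switch-domain sequence. Clusters outside 100-1000 RFU were left out.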
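Further: ATP exposure 15 min at 22 °C before imaging.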

Turning to ATCTGCACTT, the switch fluorescence ratio amounted to 1.1.

For the sequence GCCGGTATAC, the switch fluorescence ratio is 2.7.

As for CACCCGGCTC, the switch fluorescence ratio turned out to be 1.09.

With GTTTATAGTC, the switch fluorescence ratio was found to be 0.992.

In the case of AATTGATATG, the switch fluorescence ratio was 0.987.

On to CCACACGTT, for which the switch fluorescence ratio is 1.04.

For GCGCACTCAG, the switch fluorescence ratio was found to be 1.04.

For the sequence TTGGTTCGAA, the switch fluorescence ratio came out at 1.06.

Regarding AGTTTATAGT, the switch fluorescence ratio came out at 1.06.

For GCTCGCTTGA, the switch fluorescence ratio was found to be 1.03.

On to CGGCGAACAC, for which the switch fluorescence ratio worked out at 1.1.

GATTTGGCAA: the switch fluorescence ratio amounted to 0.996.

Take TAAATTGTAA: the switch fluorescence ratio is 0.996.

As to TTTTGACGG, the switch fluorescence ratio amounted to 1.04.

In the case of GATCGAGCTT, the switch fluorescence ratio is 0.99.

In the case of TAAGGGGT, the switch fluorescence ratio stood at 1.25.

On to ATTTCTGGTT, for which the switch fluorescence ratio was 0.944.

As to AAGGTAGTCC, the switch fluorescence ratio came to 0.965.

As for GTTGGAACAT, the switch fluorescence ratio was 0.985.

With GGGTCTGTCC, the switch fluorescence ratio was found to be 1.01.

Regarding TCGCAGACCT, the switch fluorescence ratio was determined as 1.28.

As for TTGGGAATGC, the switch fluorescence ratio worked out at 1.2.

Regarding AGGTTTTCCC, the switch fluorescence ratio came to 0.967.

With AAGGGTTTTG, the switch fluorescence ratio amounted to 0.964.

For ATGTGACCCT, the switch fluorescence ratio is 1.03.

As to TATGTCTTGC, the switch fluorescence ratio was determined as 1.02.

Consider GTCAGTGGCG, for which the switch fluorescence ratio amounted to 1.04.

In the case of ACAACCGGT, the switch fluorescence ratio is 0.996.

Turning to ACCCTTTGCG, the switch fluorescence ratio is 0.999.

As for GCCTCCGGGC, the switch fluorescence ratio was determined as 2.29.

For TTCAGTTCT, the switch fluorescence ratio was 0.987.

As to TTATAGTC, the switch fluorescence ratio worked out at 0.947.

For GCTAGTCTCG, the switch fluorescence ratio was 1.02.

On to CTAGCCCGCG, for which the switch fluorescence ratio amounted to 0.933.

In the case of GATTTCGGGG, the switch fluorescence ratio came to 0.959.

In the case of TTTTTTTCC, the switch fluorescence ratio was found to be 1.06.

With CGCGGAAGGA, the switch fluorescence ratio worked out at 0.947.

Turning to TGCTCTGCC, the switch fluorescence ratio was 1.14.

In the case of GGAGTGGTGG, the switch fluorescence ratio came out at 1.03.

For CAGGAAACCA, the switch fluorescence ratio was 1.09.

For GGTGGATCTA, the switch fluorescence ratio is 1.03.

On to TAGTATCTTC, for which the switch fluorescence ratio was determined as 0.995.

For AGGATAGCT, the switch fluorescence ratio came to 1.06.

In the case of GATCGGATGA, the switch fluorescence ratio stood at 1.27.

For the sequence GTATTAACGT, the switch fluorescence ratio came to 0.993.

Regarding TTCTGGAGTA, the switch fluorescence ratio came out at 1.07.

TGGCTACCCA: the switch fluorescence ratio is 1.26.

With ACACGCGCTG, the switch fluorescence ratio came to 1.02.

In the case of TAGCTATCTG, the switch fluorescence ratio came out at 1.01.

On to TCTAATCGGG, for which the switch fluorescence ratio was 1.01.

Take TTGCTCGGCG: the switch fluorescence ratio amounted to 0.968.

Consider ACGAGGATAC, for which the switch fluorescence ratio was 1.33.

With TCGGTCACGG, the switch fluorescence ratio turned out to be 0.988.

Regarding CCTCTATAGT, the switch fluorescence ratio came to 1.24.

Regarding GTAGTGATGG, the switch fluorescence ratio is 1.08.

Take CTGAGCAAGG: the switch fluorescence ratio was found to be 2.51.

For ACCTAAACAT, the switch fluorescence ratio was determined as 1.11.

ATTCTGGCCT: the switch fluorescence ratio was 1.07.

Regarding CAAAATGGGG, the switch fluorescence ratio is 0.95.

As for CAAAGGGCGC, the switch fluorescence ratio is 0.936.

Take GACGTTGTGA: the switch fluorescence ratio was found to be 0.97.

As for CTCTTAATTA, the switch fluorescence ratio worked out at 0.984.

With ACTTCCAGGA, the switch fluorescence ratio was determined as 1.07.

Regarding GGGGACTGTG, the switch fluorescence ratio turned out to be 1.01.

For the sequence TCAAATGGCA, the switch fluorescence ratio is 1.05.

On to ACATTCGAG, for which the switch fluorescence ratio came out at 1.03.

AGCAGAAACG: the switch fluorescence ratio is 0.985.
